The record followed here is the supplement of paper PMC12217912.

The list shows a part of the results. The full chains were built here from the parent and the listed change. Values near 0.05 are background.

B1: TEV protease; numbered along this chain (parent)
chain: MGESLFKGPRDYNPISSSICHLTNESDGHTTSLYGIGFGPFIITNKHLFRRNNGTLVVQSLHGVFKVKDTTTLQQHLVDGRDMIIIRMPKDFPPFPQKLKFREPQREERICLVTTNFQTKSMSSMVSDTSCTFPSGDGIFWKHWIQTKDGQCGSPLVSTRDGFIVGIHSASNFTNTNNYFTSVPKNFMELLTNQEAQQWVSGWRLNADSVLWGGHKVFMVKPEEPFQPVKEATQL

The variants in this test derive from B1. Briefly: raw area under fraction-flipped curve 0-4 h after induction (AUC4h, not background-subtracted), DNA-recorder readout of cleavage of the substrate (dimensionless); higher = more cleavage of the substrate by the protease variant. The conditions noted are these: temperature: 34 °C; time window: 0-4 h after rhamnose induction.
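Further: Bxb1 expression induced with 0.2% (w/v) L-rhamnose at OD600 near 0.5, cultures sampled hourly, flipped fraction per protease–substrate barcode pair counted by paired-end Illumina sequencing.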

With MGESLFKGPRDYNPISSSICHLTNESDGHTTSLYGIGFGPFIITNKHLFRRNNGTLVVQSLHGVFKVKDTTTLQQHLVDGRDMIIIRMPKDFPPFPQKLKFREPQREERICLVTTNFQTKSMSSMVSDTSCTFPSGDGIFWKHWIQTKDGQCGSPLVSTRDGFIVGIHSASNFTNTNNYFTSVPKSFMELLTNQEAQQWVSGWRLNADSVLWGGHKVFMVKPEEPFQPVKEATQL [N186S], the “area with substrate ENLDFQS” value was 0.0604, the “area with substrate ENLEFQS” value was determined as 0.0609, the “area with substrate ENLFFQS” value amounted to 0.0869 and the “area with substrate ENLGFQS” value is 0.0633. The “area with substrate ENLIFQS” value amounted to 0.0871, the “area with substrate ENLLFQS” value amounted to 0.0832, the “area with substrate ENLNFQS” value stood at 0.0538 and the “area with substrate ENLQFQS” value is 0.0739. Besides, the “area with substrate ENLRFQS” value is 0.0873, the “area with substrate ENLSFQS” value was 0.0679 and the “area with substrate ENLWFQS” value stood at 0.0622.

For the variant MGESLFKGPRDYNPISSSICHLTNESDGHTTSLYGIGFGPFIITNKHLFRRNNGTLVVQSLHGVFKVKDTTTLQQHLVDGRDMIIIRMPKDFPPFPQKLKFREPQREERICLVTTNFQTKSMSSMVSDTSCTFPSGDGIFWKHWIQTKDGQCGSPLVSTRDGFIVGIHSATNFTNTNNYFTSVPKNFMELLTNQEAQQWVSGWRLNADSVLWGGHKVFMVKPEEPFQPVKEATQL [S171T], the “area with substrate ENLDFQS” value was determined as 0.0575, the “area with substrate ENLHFQS” value was determined as 0.0774, the “area with substrate ENLIFQS” value stood at 0.108 and the “area with substrate ENLKFQS” value amounted to 0.0758. Besides, the “area with substrate ENLPFQS” value is 0.0478.

In the case of MGESLFKGPRDYNPISSSICHLTNESDGHTTSLYGIGFGPFIITNKHLFRRNNGTLVVQSLHGVFKVKDTTTLQQHLVDGRDMIIIRMPKDFPPFPQKLKFREPQREERICLVTTNFQTKSMSSMVSDTSCTFPSGDGIFWKHWIQTKDGQCGSPLVSTRDGFIVGIHSASNFVNTNNYFTSVPKNFMELLTNQEAQQWVSGWRLNADSVLWGGHKVFMVKPEEPFQPVKEATQL [T174V], the “area with substrate ENLDFQS” value is 0.0614, the “area with substrate ENLHFQS” value is 0.0583, the “area with substrate ENLKFQS” value came to 0.0834 and the “area with substrate ENLNFQS” value amounted to 0.066. The “area with substrate ENLSFQS” value was 0.0634 and the “area with substrate ENLVFQS” value was determined as 0.103.

Turning to MGESLFKGPRDYNPISSSICHLTNESDGHTTSLYGIGFGPFIITNKHLFRRNNGTLVVQSLHGVFKVKDTTTLQQHLVDGRDMIIIRMPKDFPPFPQKLKFREPQREERICLVTTNFQTKSMSSMVSDTSCTFPSGDGIFWKHWIQTKDGQCGSPLVSTRDGFIVGIHSASNFHNTNNYFTSVPKNFMELLTNQEAQQWVSGWRLNADSVLWGGHKVFMVKPEEPFQPVKEATQL [T174H], the “area with substrate ENLDFQS” value is 0.0636, the “area with substrate ENLGFQS” value stood at 0.0613, the “area with substrate ENLHFQS” value is 0.069 and the “area with substrate ENLIFQS” value came to 0.0572. Also, the “area with substrate ENLKFQS” value worked out at 0.0684, the “area with substrate ENLLFQS” value came out at 0.0814, the “area with substrate ENLNFQS” value came out at 0.0638 and the “area with substrate ENLPFQS” value came to 0.0526. Moreover, the “area with substrate ENLSFQS” value is 0.0532, the “area with substrate ENLVFQS” value came to 0.0709 and the “area with substrate ENLWFQS” value was 0.0635.

As for MGESLFKGPRDYNPISSSICHLTNESDGHTTSLYGIGFGPFIITNKHLFRRNNGTLVVQSLHGVFKVKDTTTLQQHLVDGRDMIIIRMPKDFPPFPQKLKFREPQREERICLVTTNFQTKSMSSMVSDTSCTFPSGDGIFWKHWIQTKDGQCGSPLVSTRDGFIVGIHSASNFTNTNNYATSVPKNFMELLTNQEAQQWVSGWRLNADSVLWGGHKVFMVKPEEPFQPVKEATQL [F180A], the “area with substrate ENLDFQS” value turned out to be 0.071, the “area with substrate ENLFFQS” value came to 0.0684, the “area with substrate ENLHFQS” value stood at 0.0749 and the “area with substrate ENLMFQS” value stood at 0.0429. The “area with substrate ENLPFQS” value stood at 0.0562 and the “area with substrate ENLRFQS” value worked out at 0.0616.

As to MGESLFKGPRDYNPISSSICHLTNESDGHTTSLYGIGFGPFIITNKHLFRRNNGTLVVQSLHGVFKVKDTTTLQQHLVDGRDMIIIRMPKDFPPFPQKLKFREPQREERICLVTTNFQTKSMSSMVSDTSCTFPSGDGIFWKHWIQTKDGQCGSPLVSTRDGFIVGIHSASNFTNTNNYFTSVTKNFMELLTNQEAQQWVSGWRLNADSVLWGGHKVFMVKPEEPFQPVKEATQL [P184T], the “area with substrate ENLDFQS” value was found to be 0.0682, the “area with substrate ENLEFQS” value turned out to be 0.0565, the “area with substrate ENLFFQS” value came to 0.0699 and the “area with substrate ENLHFQS” value came out at 0.066. Moreover, the “area with substrate ENLIFQS” value was 0.0706, the “area with substrate ENLKFQS” value worked out at 0.0654, the “area with substrate ENLLFQS” value stood at 0.052 and the “area with substrate ENLMFQS” value turned out to be 0.0429. For the same variant, the “area with substrate ENLNFQS” value came out at 0.0708, the “area with substrate ENLPFQS” value was 0.0537, the “area with substrate ENLQFQS” value is 0.0689 and the “area with substrate ENLRFQS” value is 0.0611. Also, the “area with substrate ENLSFQS” value is 0.0633, the “area with substrate ENLVFQS” value is 0.0442 and the “area with substrate ENLWFQS” value turned out to be 0.0479.

With MGESLFKGPRDYNPISSSICHLTNESDGHTTSLYGIGFGPFIITNKHLFRRNNGTLVVQSLHGVFKVKDTTTLQQHLVDGRDMIIIRMPKDFPPFPQKLKFREPQREERICLVTTNFQTKSMSSMVSDTSCTFPSGDGIFWKHWIQTKDGQCGSPLVSTRDGFIVGIHSASNFTNTNNYFTTVPKNFMELLTNQEAQQWVSGWRLNADSVLWGGHKVFMVKPEEPFQPVKEATQL [S182T], the “area with substrate ENLDFQS” value worked out at 0.0598, the “area with substrate ENLFFQS” value was 0.0809, the “area with substrate ENLKFQS” value is 0.0509 and the “area with substrate ENLMFQS” value is 0.0751. Also, the “area with substrate ENLPFQS” value worked out at 0.0621 and the “area with substrate ENLRFQS” value turned out to be 0.0526.

As to MGESLFKGPRDYNPISSSICHLTNESDGHTTSLYGIGFGPFIITNKHLFRRNNGTLVVQSLHGVFKVKDTTTLQQHLVDGRDMIIIRMPKDFPPFPQKLKFREPQREERICLVTTNFQTKSMSSMVSDTSCTFPSGDGIFWKHWIQTKDGQCGSPLVSTRDGFIVGIHSASNFTNTNNYFSSVPKNFMELLTNQEAQQWVSGWRLNADSVLWGGHKVFMVKPEEPFQPVKEATQL [T181S], the “area with substrate ENLDFQS” value came out at 0.0679, the “area with substrate ENLEFQS” value is 0.0432, the “area with substrate ENLFFQS” value is 0.0928 and the “area with substrate ENLHFQS” value was 0.0694. Further, the “area with substrate ENLKFQS” value is 0.0735, the “area with substrate ENLNFQS” value was 0.0797, the “area with substrate ENLPFQS” value worked out at 0.0651 and the “area with substrate ENLRFQS” value was determined as 0.0542. The “area with substrate ENLTFQS” value worked out at 0.0641.

MGESLFKGPRDYNPISSSICHLTNESDGHTTSLYGIGFGPFIITNKHLFRRNNGTLVVQSLHGVFKVKDTTTLQQHLVDGRDMIIIRMPKDFPPFPQKLKFREPQREERICLVTTNFQTKSMSSMVSDTSCTFPSGDGIFWKHWIQTSDGQCGSPLVSTRDGFIVGIHSASNFTNTNNYFTSVPKNFMELLTNQEAQQWVSGWRLNADSVLWGGHKVFMVKPEEPFQPVKEATQL [K148S]: the “area with substrate ENLDFQS” value turned out to be 0.0634, the “area with substrate ENLEFQS” value is 0.0538, the “area with substrate ENLFFQS” value was determined as 0.067 and the “area with substrate ENLGFQS” value came to 0.0771. Moreover, the “area with substrate ENLKFQS” value was 0.0831, the “area with substrate ENLNFQS” value is 0.0605, the “area with substrate ENLRFQS” value was 0.037 and the “area with substrate ENLSFQS” value was 0.0798.

MGESLFKGPRDYNPISSSICHLTNESDGHTTSLYGIGFGPFIITNKHLFRRNNGTLVVQSLHGVFKVKDTTTLQQHLVDGRDMIIIRMPKDFPPFPQKLKFREPQREERICLVTTNFQTKSMSSMVSDTSCTFPSGDGIFWKHWIQTKDGQCGSRLVSTRDGFIVGIHSASNFTNTNNYFTSVPKNFMELLTNQEAQQWVSGWRLNADSVLWGGHKVFMVKPEEPFQPVKEATQL [P155R]: the “area with substrate ENLDFQS” value was found to be 0.05, the “area with substrate ENLFFQS” value was found to be 0.0902, the “area with substrate ENLGFQS” value turned out to be 0.0506 and the “area with substrate ENLHFQS” value amounted to 0.0479. Besides, the “area with substrate ENLKFQS” value was determined as 0.0604, the “area with substrate ENLLFQS” value came to 0.0388, the “area with substrate ENLNFQS” value came to 0.049 and the “area with substrate ENLPFQS” value worked out at 0.0516. Also, the “area with substrate ENLQFQS” value was 0.0555, the “area with substrate ENLSFQS” value was found to be 0.0443, the “area with substrate ENLTFQS” value came to 0.0601 and the “area with substrate ENLVFQS” value worked out at 0.0476.

MGESLFKGPRDYNPISSSICHLTNESDGHTTSLYGIGFGPFIITNKHLFRRNNGTLVVQSLHGVFKVKDTTTLQQHLVDGRDMIIIRMPKDFPPFPQKLKFREPQREERICLVTTNFQTKSMSSMVSDTSCTFPSGDGIFWKHWIQTKDGQCGSPLVSFRDGFIVGIHSASNFTNTNNYFTSVPKNFMELLTNQEAQQWVSGWRLNADSVLWGGHKVFMVKPEEPFQPVKEATQL [T159F]: the “area with substrate ENLDFQS” value was 0.0671, the “area with substrate ENLEFQS” value is 0.0448, the “area with substrate ENLFFQS” value turned out to be 0.15 and the “area with substrate ENLIFQS” value stood at 0.0875. Moreover, the “area with substrate ENLKFQS” value is 0.0744, the “area with substrate ENLMFQS” value was found to be 0.0744, the “area with substrate ENLRFQS” value came to 0.0989 and the “area with substrate ENLWFQS” value turned out to be 0.0723.
